The other results are listed elsewhere or left out. The full chains were built here from the parent and the listed change. Inactive controls read about 0.05.
B1: TEV protease; numbered along this chain (parent)
chain: MGESLFKGPRDYNPISSSICHLTNESDGHTTSLYGIGFGPFIITNKHLFRRNNGTLVVQSLHGVFKVKDTTTLQQHLVDGRDMIIIRMPKDFPPFPQKLKFREPQREERICLVTTNFQTKSMSSMVSDTSCTFPSGDGIFWKHWIQTKDGQCGSPLVSTRDGFIVGIHSASNFTNTNNYFTSVPKNFMELLTNQEAQQWVSGWRLNADSVLWGGHKVFMVKPEEPFQPVKEATQL

Variants of: B1
Experiment: raw area under fraction-flipped curve 0-4 h after induction (AUC4h, not background-subtracted), DNA-recorder readout of cleavage of the substrate (dimensionless); higher = more cleavage of the substrate by the protease variant
Details: temperature: 34 °C; time window: 0-4 h after rhamnose induction
Procedure: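 In vivo DNA recorder in E. coli TOP10(DE3) ΔrhaA at 34 °C. Each TEVp single-site mutant (parent TEVp 0) is paired with a single-site variant of the 7-mer TEVs (canonical ENLYFQ|S). The substrate sits between flexible linkers in a Bxb1-sfGFP-TEVs-SsrA fusion, so cleavage stabilises Bxb1 and speeds flipping of a recombination array, read by NGS. The value is the raw area under the fraction-flipped curve over 0-4 h after rhamnose induction (AUC4h), with ≥20 reads per time point. It is not background-subtracted; inactive controls average about 0.047.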
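Further: Bxb1 expression induced with 0.2% (w/v) L-rhamnose at OD600 near 0.5, cultures sampled hourly, flipped fraction per protease–substrate barcode pair counted by paired-end Illumina sequencing.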

Row | Variant | area with substrate ENLYFAS | area with substrate ENLYFCS | area with substrate ENLYFDS | area with substrate ENLYFES | area with substrate ENLYFFS | area with substrate ENLYFHS | area with substrate ENLYFIS | area with substrate ENLYFKS | area with substrate ENLYFMS | area with substrate ENLYFNS | area with substrate ENLYFPS | area with substrate ENLYFRS | area with substrate ENLYFTS | area with substrate ENLYFVS | area with substrate ENLYFWS | area with substrate ENLYFYS | area with substrate ENLYFGS | area with substrate ENLYFSS | area with substrate ENLYFLS
1 | M125Q | 0.0765 | 0.0537 | 0.0366 | 0.0637 | 0.0639 | 0.0504 | 0.0698 | 0.0601 | 0.0617 | 0.0599 | 0.0583 | 0.0219 | 0.0579 | 0.0473 | 0.0547 | 0.0505 |  |  | 
2 | T70K | 0.0076 |  |  | 0.0499 |  |  | 0.0489 | 0.0632 |  | 0.0786 |  | 0.0519 |  |  |  |  |  |  | 
3 | Q74M | 0.0512 |  | 0.0654 | 0.0692 | 0.0684 | 0.0466 | 0.0592 |  | 0.0621 |  |  |  | 0.0451 |  | 0.0572 |  |  |  | 
4 | S182Y | 0.0515 | 0.0563 | 0.0644 | 0.0562 | 0.0553 |  | 0.0534 |  | 0.0548 |  | 0.0396 | 0.0425 | 0.0663 | 0.0365 | 0.0437 | 0.0654 |  |  | 
5 | T55A | 0.0102 | 0.0504 | 0.0495 | 0.0596 | 0.0671 |  | 0.0472 | 0.0511 | 0.0514 | 0.0641 | 0.0653 | 0.0524 | 0.0627 | 0.0579 |  | 0.0427 | 0.0469 | 0.0534 | 
6 | V157P | 0.0542 | 0.0495 |  | 0.0463 |  | 0.043 | 0.0449 |  | 0.0607 | 0.0578 | 0.0543 | 0.0584 |  | 0.0432 |  | 0.053 | 0.0568 | 0.056 | 0.0718
7 | A207G | 0.0663 |  |  |  | 0.0771 |  | 0.0146 | 0.0693 | 0.0491 |  |  | 0.0586 |  | 0.0696 |  |  |  |  | 
8 | Y34S | 0.0632 |  | 0.0302 | 0.0563 |  | 0.0501 | 0.0618 | 0.078 |  | 0.0684 | 0.0589 | 0.0534 | 0.0603 | 0.0342 |  |  |  |  | 
9 | P228L | 0.0413 | 0.0744 |  | 0.081 |  |  | 0.0701 | 0.0447 | 0.0522 | 0.0488 | 0.053 |  |  | 0.0644 |  |  | 0.047 |  | 
10 | F173Y | 0.0543 | 0.0607 | 0.088 | 0.08 | 0.0724 | 0.0661 |  |  | 0.0667 |  |  | 0.0586 | 0.068 | 0.061 | 0.054 | 0.0301 | 0.0619 |  | 
11 | T115L | 0.0656 | 0.0596 |  |  | 0.0683 | 0.0513 | 0.0385 |  | 0.0837 |  |  | 0.0694 | 0.0518 | 0.0557 |  | 0.05 |  | 0.0618 | 
12 | V210H | 0.0571 | 0.0678 | 0.0693 | 0.0659 | 0.0797 | 0.0529 | 0.0378 |  | 0.0547 |  | 0.0616 |  |  |  |  |  |  |  | 0.0632
13 | P94F | 0.0553 |  |  | 0.163 |  |  | 0.0685 |  |  |  | 0.055 | 0.0414 |  |  |  | 0.0489 |  |  | 
14 | R87S | 0.0667 | 0.0566 | 0.0504 | 0.0673 | 0.0928 | 0.0566 | 0.0585 | 0.0687 | 0.0588 | 0.0603 | 0.0566 |  | 0.0612 |  | 0.0521 | 0.0618 |  | 0.0591 | 0.0631
15 | L22Q | 0.0494 | 0.0506 |  | 0.048 | 0.0568 | 0.0358 | 0.0348 | 0.044 | 0.0314 |  | 0.0381 | 0.0362 | 0.0475 |  |  |  | 0.0514 | 0.0305 | 0.0387
16 | F117C | 0.0662 | 0.177 | 0.0694 | 0.0691 |  | 0.0629 | 0.0599 | 0.0653 | 0.0822 | 0.0615 | 0.0578 |  | 0.058 |  |  | 0.0476 | 0.053 | 0.057 | 0.069
17 | F180K | 0.033 |  |  | 0.0501 |  |  | 0.0676 |  | 0.0581 | 0.0478 | 0.059 | 0.051 |  |  |  | 0.045 |  |  | 
18 | T23D | 0.065 | 0.0327 |  | 0.0668 | 0.0592 |  | 0.0518 |  | 0.0698 | 0.0566 | 0.0569 |  |  | 0.0534 | 0.0491 |  |  | 0.0673 | 
19 | T147A | 0.0464 | 0.044 |  | 0.0614 | 0.065 | 0.0694 | 0.0451 | 0.066 | 0.0628 |  | 0.0611 | 0.0625 | 0.0644 | 0.0595 | 0.0735 |  | 0.0578 | 0.0677 | 0.0551
20 | F218M | 0.047 |  | 0.077 | 0.0609 |  | 0.0779 | 0.059 |  |  |  |  | 0.0466 |  |  |  |  | 0.0635 |  | 
21 | F101R | 0.0385 | 0.0499 | 0.0394 | 0.0836 |  |  | 0.043 |  | 0.0565 | 0.0493 | 0.0503 |  | 0.058 |  | 0.0389 | 0.0309 | 0.0475 |  | 
22 | F173N |  | 0.0814 |  |  | 0.0364 | 0.0556 |  |  | 0.0672 | 0.0677 |  |  |  | 0.0539 |  |  | 0.0521 | 0.0514 | 
23 | S158P |  | 0.0396 |  | 0.06 | 0.0503 |  | 0.0451 | 0.0559 | 0.0561 | 0.0586 |  |  | 0.0353 | 0.0765 | 0.0538 |  |  | 0.0582 | 
24 | K221W |  | 0.0578 | 0.0584 |  |  | 0.0665 | 0.0686 |  | 0.0541 | 0.0569 | 0.0682 |  | 0.0438 |  |  | 0.0648 |  | 0.0616 | 0.0799
25 | V157Q |  | 0.0528 | 0.0559 | 0.0555 | 0.0301 |  | 0.0411 |  | 0.0663 | 0.0653 | 0.0706 | 0.0608 | 0.0502 | 0.0448 | 0.0502 |  |  | 0.0643 | 
26 | L211Y |  | 0.0379 | 0.068 | 0.066 | 0.066 | 0.0534 | 0.0557 |  | 0.0707 | 0.0747 | 0.0547 | 0.0575 | 0.0662 |  |  |  |  |  | 0.065
27 | R50M |  | 0.0619 |  | 0.0679 | 0.0754 | 0.0364 | 0.0643 | 0.0689 | 0.0662 | 0.0748 | 0.0613 |  |  | 0.0934 |  |  |  |  | 0.0592
28 | S124L |  | 0.0581 |  | 0.0621 | 0.0746 |  | 0.0613 |  | 0.0591 |  |  | 0.0582 |  |  |  |  |  | 0.0671 | 
29 | C111P |  | 0.0422 | 0.081 |  | 0.0641 |  | 0.0511 | 0.0881 | 0.0548 | 0.0629 | 0.0469 | 0.059 |  | 0.0495 | 0.0617 |  |  |  | 
30 | S182I |  | 0.0565 |  | 0.0457 |  | 0.0559 | 0.0469 |  | 0.0666 |  | 0.0539 | 0.0844 | 0.0515 |  | 0.0373 | 0.041 |  | 0.0477 | 

Source: the supplement of paper PMC12217912
